Assay results reported in PubChem BioAssay (NCATS).
Several values for one entry are separate records, joined by “and”; a condition that tells them apart may be missing. Equal entries are not always repeated. The inconclusive results got no clear call from the source; some entries with a clear call stand among them for comparison. For some of these results: Where the call is inconclusive, the potency comes from a doubtful curve fit. Activity calls are given as the source filed them. Unless noted, calls follow the shape of the dose curve; as a rule, active = well fitted curve in the direction sought with a large enough effect; inconclusive = small, poorly fitted or top-dose-only effect, or another doubt; inactive = no such curve, though single readings can be large; an effect the other way counts as inactive or inconclusive.

Experiments:
[1] = NFAT Signaling Pathway (AID 444; active = well fitted curve in either direction with a large enough effect, not every such curve was filed as active; inconclusive = small, poorly fitted or top-dose-only effect, or another doubt;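 also: carbachol stimulus at about its EC50 of 1 µM final; % is scaled to controls: 0 for no effect and ±100 for the full control effect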); conditions: Jurkat NFAT-bla M1, carbachol, beta-lactamase ratio, 5 h; at 17.2 µM (top of the series)
Procedure, shortened: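 Jurkat cells carrying an NFAT-driven β-lactamase reporter and co-transfected muscarinic M1 receptor were treated with compound plus carbachol (1 uM final, an EC50 level) for 5 h at 37 °C. CCF4 loading followed for 1 h at RT; 460/530 nm ratio gave %activity.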

[2] = system: DIV14; assay: qHTS profiling for inhibitors of Plasmodium falciparum proliferation (AID 504749); also: nearly all actives have a fitted effect of over 60% in size; also: potency is read from the fitted curve at half-maximal effect; conditions: P. falciparum in erythrocytes, SYBR Green DNA, 72 h; series mostly up to 28.7 µM
Procedure, shortened: (§1)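 Quantitative HTS: compounds pinned into medium, infected erythrocytes added (0.3% parasitemia, 2.5% hematocrit), 72 h culture at 37 C under 5% CO2. Saponin/Triton lysis with SYBR Green I, overnight RT, then fluorescence read.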

[3] = Quantitative High-Throughput drug screen in 47 multiple myeloma cell lines against the NCATS MIPE library collection: ARP1_JJKsccF8 cell viability assay (AID 1918928; also: potency is read from the fitted curve at half-maximal effect; nearly all actives have a fitted effect of over 40% in size); conditions: ARP1 myeloma cells viability, CellTiter-Glo ATP, 48 h; series mostly up to 45.8 µM
Procedure, shortened: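 500 cells/well; MIPE 4.0 library pinned in; 48 h, 37 °C, 5% CO2; CellTiter-Glo ATP luminescence. Controls: DMSO = 100% viability, medium only = 0%.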

[4] = Quantitative High-Throughput drug screen in 47 multiple myeloma cell lines against the NCATS MIPE library collection: INA6_PLB cell viability assay (AID 1918965; also: potency is read from the fitted curve at half-maximal effect; nearly all actives have a fitted effect of over 55% in size); conditions: INA6 myeloma viability, CellTiter-Glo ATP luminescence, 48 h; viability (% of control): at 45.8 µM (top of the series)
Procedure, shortened: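 Luminescent ATP measurement with CellTiter-Glo gives viability, scaled between DMSO-only wells (100%) and media-only wells (0%). Cells, 500 per well, faced library compounds for 48 hours at 37C.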

[5] = Quantitative High-Throughput drug screen in 47 multiple myeloma cell lines against the NCATS MIPE library collection: KMS27_JCRB cell viability assay (AID 1918970); conditions: KMS27 myeloma cells, CellTiter-Glo ATP viability, 48 h; viability (% of DMSO): at 45.8 µM (top of the series); also: nearly all actives have a fitted effect of over 30% in size; also: potency is read from the fitted curve at half-maximal effect
Procedure, shortened: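 CellTiter-Glo luminescence after 48 h drug exposure at 37 °C; 500 cells/well, 1536-well format, pin-tool compound addition; DMSO = 100%, media-only = 0% viability.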

[6] = Quantitative High-Throughput drug screen in 47 multiple myeloma cell lines against the NCATS MIPE library collection: LP1_DSMZ cell viability assay (AID 1918982); conditions: LP1 myeloma viability, CellTiter-Glo ATP luminescence, 48 h; series mostly up to 45.8 µM; also: nearly all actives have a fitted effect of over 35% in size; also: potency is read from the fitted curve at half-maximal effect
Procedure, shortened: (§2)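 qHTS format: cells plated (500/well), pin-dosed with MIPE 4.0 compounds, kept 48 h at 37 °C. Readout was CellTiter-Glo luminescence, median RLU.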

[7] = Quantitative High-Throughput drug screen in 47 multiple myeloma cell lines against the NCATS MIPE library collection: SKMM1_PLB cell viability assay (AID 1919863); conditions: SKMM1 myeloma viability, CellTiter-Glo ATP, 48 h; viability: stronger effect = lower value; also: potency is read from the fitted curve at half-maximal effect; nearly all actives have a fitted effect of over 35% in size
Procedure, shortened: as §2

[8] = system: UISO; assay: qHTS assay to identify novel small-molecules to repurpose for Merkel cell carcinoma treatment (AID 1296009); conditions: MCC and control cell lines, CellTiter-Glo viability, 72 h; activity change, negative = cytotoxicity: at 46 µM (top of the series); also: nearly all actives have a fitted effect of over 60% in size; also: potency is read from the fitted curve at half-maximal effect; as to activity change, negative = cytotoxicity: % is scaled to controls: 0 for no effect and ±100 for the full control effect
Procedure, shortened: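 Viability readout: ATP luminescence (CellTiter-Glo) after 72 hr drug exposure at 37 degree celsius. Dose-response format was 8 points for NPC and 11 points for MIPE; data normalized to in-plate controls.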

[9] = qHTS of pediatric cancer cell lines to identify multiple opportunities for drug repurposing: Confirmatory screen for MG 63 (6-TG R) cells (AID 1347119); conditions: MG-63 (6-TG resistant) osteosarcoma viability; series mostly up to 45.9 µM; also: nearly all actives have a fitted effect of over 55% in size; also: potency is read from the fitted curve at half-maximal effect;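 as to activity change, negative = cytotoxicity: plate controls were DMSO neutral control for no effect and bortezomib for full effect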
Procedure, shortened: (§3)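 Cells (500-1,000/well) in growth media were settled 5 h at 37 degrees C, then given compounds for 48 h. Viability was read as CellTiter-Glo luminescence. Primary runs used MIPE at 11 points (0.78 nM-46 µM) and NPC at 8 points (0.59 nM-46 µM); follow-ups used 11 points.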

[10] = system: Zika virus NS2B-NS3 protease; assay: Primary screen GU AMC qHTS for Zika virus inhibitors (AID 1347154); conditions: Zika NS2B-NS3 unlinked protease, AMC fluorogenic substrate; series mostly up to 54.1 µM; also: nearly all actives have a fitted effect of over 70% in size; also: potency is read from the fitted curve at half-maximal effect;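 as to activity change, negative = inhibition: 0% = no-inhibitor control and -100% = no-enzyme control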
Procedure, shortened: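 Unlinked Zika NS2B hydrophilic domain/NS3 protease domain noncovalent complex (25 nM final) in 10 mM Tris-HCl pH 8.0, 0.01% Tween 20, with AMC peptide substrate. Fluorescence (ex 340, em 450 nm) change over 15 min, room temperature; percent inhibition fitted to 4-parameter Hill equation.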

[11] = Quantitative High-Throughput drug screen in 47 multiple myeloma cell lines against the NCATS MIPE library collection: KMS26_JCRB cell viability assay (AID 1918975); conditions: KMS26 myeloma cells viability, CellTiter-Glo ATP, 48 h; series mostly up to 45.8 µM; also: potency is read from the fitted curve at half-maximal effect; nearly all actives have a fitted effect of over 45% in size
Procedure, shortened: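 Approved and investigational drugs from MIPE 4.0 were added by pin tool to 500 cells per well. After 48 hours at 37C, ATP-based CellTiter-Glo luminescence indicated remaining viability.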

[12] = Quantitative High-Throughput drug screen in 47 multiple myeloma cell lines against the NCATS MIPE library collection: MOLP8_DSMZ cell viability assay (AID 1918977); conditions: MOLP8 myeloma viability, CellTiter-Glo ATP luminescence, 48 h; series mostly up to 45.8 µM; also: potency is read from the fitted curve at half-maximal effect; nearly all actives have a fitted effect of over 45% in size
Procedure, shortened: as §2

[13] = Quantitative High-Throughput drug screen in 47 multiple myeloma cell lines against the NCATS MIPE library collection: OCIMY1_PLB cell viability assay (AID 1918979); conditions: OCI-MY1 myeloma viability, CellTiter-Glo ATP, 48 h; series mostly up to 45.8 µM; also: potency is read from the fitted curve at half-maximal effect; nearly all actives have a fitted effect of over 35% in size
Procedure, shortened: as §2

[14] = qHTS of pediatric cancer cell lines to identify multiple opportunities for drug repurposing: Primary screen for Rh30 cells (AID 1347107); conditions: Rh30 rhabdomyosarcoma viability, CellTiter-Glo luminescence, 48 h; series mostly up to 46 µM; also: nearly all actives have a fitted effect of over 75% in size; also: potency is read from the fitted curve at half-maximal effect
Procedure, shortened: as §3

[15] = A High-Content qHTS Against Drug Library for the Identification of Small Molecules that Inhibit DYT1 Early Onset Primary Dystonia-Associated Cell Pathology (AID 1645839; calls by dose curve; also: potency is read from the fitted curve at half-maximal effect); conditions: HEK293 Flp-In EGFP-delE TorsinA, punctate imaging, 48 h; series mostly up to 46.1 µM
Procedure, shortened: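 Induced EGFP-delE TorsinA cells are imaged after 48 h of compound treatment. Punctate fusion-protein distribution gives the %pathology value, while nuclei counts flag toxicity. Wild-type EGFP-hTOR1A cells define the normal pattern.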

[16] = Quantitative High-Throughput drug screen in 47 multiple myeloma cell lines against the NCATS MIPE library collection: OCIMY5_PLB cell viability assay (AID 1918988); conditions: OCI-MY5 myeloma viability, ATP luminescence, 48 h; series mostly up to 45.8 µM; also: potency is read from the fitted curve at half-maximal effect; nearly all actives have a fitted effect of over 65% in size
Procedure, shortened: as §2

[17] = Quantitative High-Throughput drug screen in 47 multiple myeloma cell lines against the NCATS MIPE library collection: U266_ATCC cell viability assay (AID 1919864); conditions: U266 myeloma viability, CellTiter-Glo ATP luminescence, 48 h; series mostly up to 45.8 µM; also: nearly all actives have a fitted effect of over 35% in size; also: potency is read from the fitted curve at half-maximal effect
Procedure, shortened: as §2

[18] = system: CP335; assay: qHTS profiling for inhibitors of Plasmodium falciparum proliferation (AID 504749); also: nearly all actives have a fitted effect of over 60% in size; also: potency is read from the fitted curve at half-maximal effect; conditions: P. falciparum in erythrocytes, SYBR Green DNA, 72 h; series mostly up to 28.7 µM
Procedure, shortened: as §1

[19] = system: CP266; assay: as above; conditions: P. falciparum in erythrocytes, SYBR Green DNA, 72 h; series mostly up to 28.7 µM
Procedure, shortened: as §1

[20] = Drug repurposing screens with cells derived from glioblastoma tumor samples (AID 1345199); conditions: GBM patient neurospheres viability, ATP luminescence, 48 h; Potency: tumour line A unless noted; activity, negative = cell killing: at 46 µM (top of the series), tumour line A unless noted; also: potency is read from the fitted curve at half-maximal effect; nearly all actives have a fitted effect of over 40% in size
Procedure, shortened: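 Primary testing used CD133+ neurospheres from four GBM patients, seven concentrations, 48 h exposure and ATP-based viability; confirmation added three slower-growing patient lines.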
Tags tell the direction and shape of the fitted curve.

SMILES: CN1CCCN=C1COC(=O)C(O)(c1ccccc1)C1CCCCC1 (stereo not drawn)
- activity change, negative = inhibition [1]: active: -84.1%
- Potency [2]: inconclusive: 19 µM [inhibitor, partial curve, poor fit]

SMILES: Cn1cc(CNCC2CCN(c3ncc(C(=O)NO)cn3)CC2)c2ccccc21
- Potency [3]: active: 0.0166 µM
- Potency [4]: active: 0.001 µM
- Potency [5]: active: 0.0166 µM
- Potency [6]: active: 0.0418 µM
- Potency [7]: active: 0.059 µM
- Potency [8]: active: 0.264 µM

SMILES: CN(C)Cc1c(C(=O)NCCOc2ccc(C(=O)NO)cc2)oc2ccccc12
- Potency [9]: active: 1.47 µM
- Potency [10]: inactive
- Potency [4]: active: 0.187 µM
- Potency [5]: active: 0.264 µM
- Potency [11]: active: 1.05 µM
- Potency [12]: inconclusive: 0.743 µM [cytotoxic, full curve]
- Potency [13]: active: 1.66 µM
- Potency [6]: inconclusive: 0.833 µM [cytotoxic, full curve]

SMILES: CC(C)n1c(/C=C/[C@@H](O)C[C@@H](O)CC(=O)O)c(-c2ccc(F)cc2)c2ccccc21
- Potency [14]: inconclusive: 3.35 µM [cytotoxic, full curve]
- Potency [10]: inconclusive: 35.5 µM [inhibitor, single point]
- Potency [15]: inactive

SMILES: N=c1nc(N2CCCCC2)cc(N)n1O
- activity change, negative = inhibition [1]: inconclusive: -31.5% [inhibitor]
- Potency [15]: inconclusive: 22.4 µM [inhibitor, single point]
- Potency [3]: inconclusive: 0.001 µM
- Potency [4]: active: 23.5 µM
- Potency [5]: inactive
- Potency [11]: inconclusive: 29.6 µM [rising, partial curve, poor fit]
- Potency [12]: inconclusive: 4.18 µM [rising, partial curve, poor fit]
- Potency [6]: inactive
- Potency [16]: inconclusive: 4.18 µM [rising, partial curve, poor fit]
- Potency [7]: inconclusive: 0.0209 µM [rising, full curve, poor fit]
- Potency [17]: inactive
- Potency [18]: inactive

SMILES: CN1CC[C@H](c2c(O)cc(O)c3c(=O)cc(-c4ccccc4Cl)oc23)[C@H](O)C1
- Potency [14]: inactive
- Potency [15]: inconclusive: 1 µM [inhibitor, full curve, poor fit]
- Potency [8]: active: 0.473 µM

SMILES: NC(N)=N/N=C/c1c(Cl)cccc1Cl
- Potency [19]: inconclusive: 19 µM [inhibitor, single point]
- Potency [18]: inconclusive: 19 µM [inhibitor, single point]
- Potency [2]: inconclusive: 15.1 µM [inhibitor, single point]
- Potency [20]: active: 15.8 µM

SMILES: CCOC(=O)OC(C)OC(=O)[C@@H]1N2C(=O)[C@@H](NC(=O)[C@H](N)c3ccccc3)[C@H]2SC1(C)C (stereo partly drawn)
- Potency [20]: inconclusive: 12.6 µM [inhibitor, partial curve, poor fit]

SMILES: O=C(O)[C@@H]1[C@H]2C[C@H]3c4[nH]c5ccccc5c4CCN3C[C@@H]2CC[C@@H]1O
- Potency [10]: inconclusive: 25.6 µM [inhibitor, partial curve] and inconclusive: 23.8 µM [inhibitor, single point]
- Potency [20]: inconclusive: 251 nM [inhibitor, full curve, poor fit] [tumour line D]
- Potency [8]: inactive

SMILES: O=C(Nc1cn[nH]c1-c1nc2ccc(CN3CCOCC3)cc2[nH]1)NC1CC1
- Potency [9]: inactive
- Potency [4]: active: 0.148 µM
- Potency [5]: active: 3.32 µM
- Potency [12]: active: 2.64 µM
- Potency [17]: active: 2.35 µM

SMILES: C#C[C@]1(OC(C)=O)CC[C@H]2[C@@H]3CCC4=C/C(=N/O)CC[C@@H]4[C@H]3CC[C@@]21CC
- Potency [10]: inconclusive: 20.3 µM [inhibitor, partial curve, poor fit]
- Potency [15]: inconclusive: 25.1 µM [inhibitor, single point]
- Potency [19]: inactive
- Potency [18]: inconclusive: 21.3 µM [inhibitor, partial curve, poor fit]
- Potency [2]: inconclusive: 8.49 µM [inhibitor, single point]
- Potency [8]: active: 29.9 µM

SMILES: C[C@@H](Oc1ccc2[nH]nc(C=Cc3cnn(CCO)c3)c2c1)c1c(Cl)cncc1Cl
- Potency [9]: active: 0.737 µM
- Potency [5]: inactive
- Potency [11]: active: 8.33 µM
- Potency [6]: active: 20.9 µM
- Potency [17]: active: 23.5 µM
